# Reference: paper PMC4336329 (PLoS ONE, 2015)
# The campaign covered roughly 310,000 compounds. About 2,200 (0.71%) showed an effect of 50% or more. Effects have a minus sign here. The list shows a part of the results.
# Target: human ether-à-go-go-related gene (hERG) potassium channel (human, UniProt Q12809)
# Test: primary screen, population patch clamp on CHO cells stably expressing hERG
# Sequence of human ether-à-go-go-related gene (hERG) potassium channel (Q12809 whole entry, looked up): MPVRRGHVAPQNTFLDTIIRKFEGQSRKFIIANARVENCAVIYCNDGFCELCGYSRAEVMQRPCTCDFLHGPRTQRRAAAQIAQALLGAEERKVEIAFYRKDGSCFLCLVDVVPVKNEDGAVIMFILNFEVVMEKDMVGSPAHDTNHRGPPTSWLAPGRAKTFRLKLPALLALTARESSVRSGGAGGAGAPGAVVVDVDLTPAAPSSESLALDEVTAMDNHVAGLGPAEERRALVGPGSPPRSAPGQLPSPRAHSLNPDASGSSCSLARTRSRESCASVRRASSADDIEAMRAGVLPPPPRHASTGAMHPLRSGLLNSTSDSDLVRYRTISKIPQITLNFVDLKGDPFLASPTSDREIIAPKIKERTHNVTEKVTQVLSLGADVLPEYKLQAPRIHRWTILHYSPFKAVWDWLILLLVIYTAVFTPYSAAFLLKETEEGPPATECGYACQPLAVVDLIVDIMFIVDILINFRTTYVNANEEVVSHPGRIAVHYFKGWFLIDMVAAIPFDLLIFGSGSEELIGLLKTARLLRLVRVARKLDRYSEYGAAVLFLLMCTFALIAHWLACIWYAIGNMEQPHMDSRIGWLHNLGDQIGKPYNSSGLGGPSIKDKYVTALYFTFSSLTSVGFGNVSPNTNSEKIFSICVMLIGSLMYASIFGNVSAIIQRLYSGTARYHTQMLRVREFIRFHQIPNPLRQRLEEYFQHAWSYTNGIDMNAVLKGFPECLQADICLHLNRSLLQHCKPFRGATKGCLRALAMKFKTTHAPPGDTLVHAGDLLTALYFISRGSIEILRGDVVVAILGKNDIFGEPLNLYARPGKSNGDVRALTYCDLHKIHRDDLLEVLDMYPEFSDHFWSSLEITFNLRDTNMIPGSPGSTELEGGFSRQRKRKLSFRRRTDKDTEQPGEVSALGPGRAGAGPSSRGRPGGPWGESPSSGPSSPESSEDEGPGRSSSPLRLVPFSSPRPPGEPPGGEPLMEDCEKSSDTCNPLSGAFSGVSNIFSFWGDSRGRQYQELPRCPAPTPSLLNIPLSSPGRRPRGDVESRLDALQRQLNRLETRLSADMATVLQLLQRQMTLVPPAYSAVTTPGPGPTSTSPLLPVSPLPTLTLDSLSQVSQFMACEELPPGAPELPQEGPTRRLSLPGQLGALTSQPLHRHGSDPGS
row,SMILES,"hERG current change (%, negative = inhibition) at 1uM [%]"
1,COc1ccc(N2C(=NC(=O)C3CCCCC3)SC3CS(=O)(=O)CC32)cc1 (centres unmarked),13.6
2,O=C(CSc1ncccn1)N1CCN(C(c2ccccc2)c2ccccc2)CC1,4.43
3,CC1CSc2nnc(CCc3ccccc3)n21 (centres unmarked),9.67
4,Cc1ccc(O)c(C2=NNC(O)(C(F)(F)F)C2)c1 (centres unmarked),2.87
5,Cc1c(Br)c(C(F)(F)F)nn1CC(=O)NCc1ccco1,7.36
6,Cc1noc(C)c1CSc1nnc(C)c(=O)[nH]1,8.26
7,Fc1cccc(CSc2ccc3nnc(-c4cccnc4)n3n2)c1,-0.141
8,Cc1ccc2nc(Nc3nc(-c4ccccc4)cc(=O)[nH]3)nc(C)c2c1,12.9
9,CCOC(=O)C1=C(CC)Nc2ccccc2N=C1NC(=O)c1cc(S(=O)(=O)N(C)C)ccc1Cl,14.2
10,CCOC(=O)Cc1c(C)nc2c(-c3ccc(OC)cc3)c(C)nn2c1C,8.96
11,Cc1cc(C)c2nc(-c3ccccn3)cc(C(=O)NCc3cc(C)n(C)n3)c2c1,0.286
12,CC1CN(Cc2nc3c(c(=O)n(C)c(=O)n3C)n2CCCO)CC(C)O1 (centres unmarked),4.86
13,Cc1cc(C(F)(F)F)nn1CC(=O)N1CCCCC1C (centres unmarked),6.75
14,CN(C)C(=O)CN(c1ccc2c(c1)OCO2)S(C)(=O)=O,14.9
15,CC(C)C(OC(=O)c1cccs1)C(=O)NCCc1ccccc1 (centres unmarked),12.6
16,CCN1CCN(C(=O)/C=C/c2c(F)cccc2Cl)CC1,2.69
17,O=C(N/N=C/c1ccccc1F)c1ccc(COc2ccccc2Cl)o1,-0.706
18,Cn1c(SCC(=O)c2ccc(F)cc2)nnc1-c1cccnc1,4.68
19,Cc1nn(Cc2cccc(F)c2)c(C)c1NC(=O)c1c(Cl)cnn1C,15.3
20,CN1CCN(C(=O)/C=C/c2ccc3c(c2)OCO3)CC1,7.04
21,O=C(O)c1sccc1S(=O)(=O)N1CCN(c2ccc(C(F)(F)F)cn2)CC1,6.39
22,O=C(NC1CCCc2ccccc21)c1cn2ccccc2n1 (centres unmarked),-0.565
23,COC(=O)Cn1ccc2cc(S(=O)(=O)N3CCCCCC3)ccc21,11.9
24,CCNC(=O)C(=O)NCC1OCCCN1S(=O)(=O)c1cccs1 (centres unmarked),4.08
25,Cc1cc(N(C)C)c(C#N)c(NCc2ccccc2)n1,6.98
26,COC(=O)CCCn1nc(NC(=O)COc2ccc(F)cc2)cc1C,-0.777
